# Measurements from PubChem BioAssay AID1159614 (National Center for Advancing Translational Sciences (NCATS), 2016).
# The campaign covered roughly 45,000 compounds. About 65 (0.1%) were called active. The call rests on the fitted dose curve; in most records, active means well fitted activation curve with a large enough effect; inconclusive means small, poorly fitted or top-dose-only effect; inactive means no such curve, though single readings can be large or run the other way. The list shows a part of the results.
# Biological target: Galactocerebrosidase (Homo sapiens) (UniProt P54803)
# Sequence of UniProt P54803 (P54803 whole entry, looked up): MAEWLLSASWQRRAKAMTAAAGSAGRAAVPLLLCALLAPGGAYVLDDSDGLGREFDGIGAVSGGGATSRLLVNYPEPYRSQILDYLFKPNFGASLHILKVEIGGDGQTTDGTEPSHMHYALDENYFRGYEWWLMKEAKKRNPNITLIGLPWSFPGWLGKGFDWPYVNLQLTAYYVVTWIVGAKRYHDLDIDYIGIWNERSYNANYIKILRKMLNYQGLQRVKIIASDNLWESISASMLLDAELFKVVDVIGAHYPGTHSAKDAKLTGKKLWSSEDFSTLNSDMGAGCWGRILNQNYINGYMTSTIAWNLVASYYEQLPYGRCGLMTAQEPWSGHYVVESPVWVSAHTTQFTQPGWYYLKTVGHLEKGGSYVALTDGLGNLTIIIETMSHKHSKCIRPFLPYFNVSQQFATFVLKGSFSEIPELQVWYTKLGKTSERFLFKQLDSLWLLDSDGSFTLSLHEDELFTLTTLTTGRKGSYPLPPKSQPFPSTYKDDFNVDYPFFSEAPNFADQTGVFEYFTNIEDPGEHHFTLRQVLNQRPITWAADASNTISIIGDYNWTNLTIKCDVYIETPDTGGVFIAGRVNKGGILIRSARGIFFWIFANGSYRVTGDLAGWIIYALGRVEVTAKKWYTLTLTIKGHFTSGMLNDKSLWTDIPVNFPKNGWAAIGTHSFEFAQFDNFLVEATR
# Test: A Novel Cell-Based Assay to Identify Small Molecules for B -Galactocerebrosidase; further: 0% is about no effect; nearly all actives have a fitted effect of over 65% in size
# Details: 145M-Twi-hGALC-G270D cells (Twitcher mouse brain line with human GALC G270D), HMU-beta-Gal fluorescence, 48 h; series mostly up to 57.5 µM; activation: at the top concentration
# Procedure, shortened: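 Fluorescence readout: HMU-β-gal cleavage by mutant GALC (0.1 mM final, citrate/phosphate pH 5.2 with 1 mg/mL taurocholate), stopped with carbonate/bicarbonate plus Triton X-100. Cells: murine Twitcher 145M-Twi expressing human G270D GALC; qHTS for activators.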
row,SMILES,activation
1,COc1ccc(CC(=O)NC2CC(=O)N(c3cccc(F)c3)C2)cc1OC (stereo not drawn),inactive: 1.48%
2,CCc1nn(CCCC(=O)N2CCN(c3cc(Cl)ccc3C)CC2)c(=O)c2cc3occc3n12,inactive: -8.53%
3,COc1ccccc1Nc1sc(C(=O)c2ccc3c(c2)OCO3)c(N)c1S(=O)(=O)c1ccccc1,inactive: -4.17%
4,Cc1ccc(C2=Nc3ccccc3N(CC(=O)Nc3ccccc3F)C(=O)C2)cc1C,inactive: -19.2%
5,CCOC(=O)c1c(C)n(S(=O)(=O)c2ccc(C)cc2C)c2ccc(NS(=O)(=O)c3ccc(C)cc3C)cc12,inactive: -2.18%
6,O=C(Nc1cccc(Cl)c1)c1ccc2nc(CCc3ccccc3)oc2c1,inactive: -9.93%
7,CCCn1c2ccccc2c2cnn(CC(=O)NCc3ccccc3Cl)c(=O)c21,inactive: -4.8%
8,O=c1oc2ccccc2cc1-c1nnc(Nc2ccc(Cl)cc2Cl)s1,inactive: -11.6%
9,CCN(CC)CCCNC(=O)Cc1ccc(NC(=O)N2CCCCc3ccccc32)cc1,inactive: 3.54%
10,CCC1Oc2ccc(C)cc2N(CC(=O)NCc2ccc(OC)cc2)C1=O (stereo not drawn),inactive: -9.93%
11,CCCCN1C(=O)c2[nH]nc(-c3ccccc3O)c2C1c1ccc(C(C)(C)C)cc1 (stereo not drawn),inactive: -9.11%
12,COc1ccc2nc(NC(=O)Nc3ccccc3)sc2c1,inactive: -20%
13,COc1cc(OC)c(NC(=O)C2CCN(C(=O)c3sc4nc[nH]c(=O)c4c3C)CC2)cc1Cl,inactive: 11.4%
14,CC(C)Oc1ccc(CNC(=O)C2CCN(c3nc4ccccc4nc3C(F)(F)F)CC2)cc1,inactive: -15.8%
15,CCC(=O)N1CCc2cc(Br)cc(S(=O)(=O)N3CCC(C(=O)Nc4ccccc4CC)CC3)c21,inactive: -7.28%
16,COc1cccc(C2CC(=O)Nc3cc4c(cc32)OCO4)c1OC(C)C (stereo not drawn),inactive: -4.84%
17,Cc1nc(-c2ccccc2)sc1-c1ccc(SCC(=O)Nc2cccc(C(F)(F)F)c2)nn1,inactive: -11.2%
18,Cc1ccc(-c2nc3cc(Cl)ccc3o2)cc1NC(=O)c1cc([N+](=O)[O-])ccc1N1CCOCC1,inactive: -6.85%
19,CC(=O)NC1CC(=O)N(c2ccc3c(c2)OCCO3)C1 (stereo not drawn),inactive: -8.84%
20,Cc1oc(C)c2c(=O)cc(-c3ccc4c(c3)OCO4)cc(OC(=O)c3ccccc3Br)c12,inactive: -12.2%
21,COc1ccc(NC(=O)C2CCN(S(=O)(=O)c3ccc4c(c3)CCCC(=O)N4)CC2)cc1Cl,inactive: -4.08%
22,CCNC(=O)Cn1c(-c2cccs2)cc2ccccc21,inactive: -8.78%
23,Cc1ccc(CN(C(=O)Nc2cccc(Cl)c2)c2ccccn2)cc1,inactive: -31.1%
24,COc1ccc(Nc2cc(C(=O)NC3CCCC3)c3ccccc3n2)c(OC)c1,inactive: -8.21%

row,SMILES,activation
1,CCOc1cccc(C2c3c(oc4ccc(F)cc4c3=O)C(=O)N2CCc2ccc(OC)cc2)c1 (stereo not drawn),inactive: -17.4%
2,COc1ccc(NC(=O)c2nnn(Cc3nc(-c4cc(Br)ccc4OC)oc3C)c2C)cc1,inactive: -10.1%
3,Cc1ccc(C)c(Cn2c(=O)n(CCCCC(=O)NCc3ccccc3Cl)c(=O)c3ccccc32)c1,inactive: 1.89%
4,CCn1ccc2cc(S(=O)(=O)N3CCC(C(=O)NCc4cccc(C)c4)CC3)ccc21,inactive: -4.83%
5,CCCCNC(=O)c1cc(Sc2ccc(OCC)cc2)nc2ccccc12,inactive: -0.808%
6,CCOc1ccccc1NC(=O)Cn1ccn(-c2ccccc2)c(=O)c1=O,inactive: -12.7%
7,COc1ccccc1N1CCN(c2csc3ccc(Cl)cc3c2=O)CC1,inactive: -10.6%
8,Cc1ccc(Cn2c(-c3ccccc3)nc3ccccc32)cc1,inactive: -14.1%
9,COc1cc(/C=C(\C#N)c2nc3ccccc3c(=O)[nH]2)cc(OC)c1OC,inactive: -5.65%
10,COc1ccc(S(=O)(=O)N2CCN(c3ccccc3OC)CC2)cc1-c1noc(C)n1,inactive: -12.4%
11,COc1cc(OC)c(NC(=O)c2cc(CN3CCOCC3)on2)cc1Cl,inactive: -16%
12,CCn1ccc2cc(S(=O)(=O)N3CCCN(C(=O)NCC(C)C)CC3)ccc21,inactive: -26.8%
13,O=C(CN1C(=O)C2CCCCN2c2ccc(C(=O)N3CCCC3)cc21)NCc1cccc(Cl)c1 (stereo not drawn),inactive: -20.9%
14,CN(C)c1ccc(CNC(=O)c2cc3cc(S(=O)(=O)N4CCCCC4)ccc3n2C)cc1,inactive: -14.3%
15,CCn1cc(C(=O)NCc2ccc(C)cc2)c(=O)c2cc(S(=O)(=O)N3CCC(C)CC3)ccc21,inactive: -11.9%
16,Cc1ccc(-c2c(C(=O)Nc3ccc(F)c(F)c3)oc(=O)c3ccccc23)cc1,inactive: -9.87%
17,CCOC(=O)OC(C)OC1=C(C(=O)Nc2ccccn2)N(C)S(=O)(=O)c2ccccc21 (stereo not drawn),inactive: -19.5%
18,CCOc1ccc(CNS(=O)(=O)c2c(C(=O)N3CCCCCC3)c(C)n(C)c2C)cc1OC,inactive: -22.8%
19,Cc1ccc(Cl)c2sc(NC(=O)CS(=O)(=O)c3ccc(Cl)cc3)nc12,inactive: -15.1%
20,CC(=O)[C@H]1CC[C@H]2[C@@H]3C[C@H](C)C4=CC(=O)CC[C@]4(C)[C@H]3[C@@H](O)C[C@]12C,inactive: -12%
21,Cc1cccc(N2CCN(C(=O)CSCc3ccc(F)cc3)CC2)c1C,inactive: -12.2%
22,CCCCN(C)C(=O)C1CCCN(c2ncnc3onc(-c4ccc(F)cc4)c23)C1 (stereo not drawn),inactive: -19.7%
23,CCN(CC)S(=O)(=O)c1ccc2c(c1)c(=O)c(C(=O)NCc1ccccc1)cn2C,inactive: -12.2%
24,Cc1ccc(NC(=O)Nc2nnc(N3CCCC3)s2)c(C)c1,inactive: 8.33%
